Data on 45 compounds can be found in article PMC4336329 (PLoS ONE, 2015).

The campaign covered roughly 310,000 compounds. About 14,000 (4.5%) showed an effect of 50% or more. Effects have a minus sign here. This is one part of the list.
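Note: peak tail current of the secondary pulse compared with the same well before compound.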

Chain of human ether-à-go-go-related gene (hERG) potassium channel (Q12809 whole entry, looked up): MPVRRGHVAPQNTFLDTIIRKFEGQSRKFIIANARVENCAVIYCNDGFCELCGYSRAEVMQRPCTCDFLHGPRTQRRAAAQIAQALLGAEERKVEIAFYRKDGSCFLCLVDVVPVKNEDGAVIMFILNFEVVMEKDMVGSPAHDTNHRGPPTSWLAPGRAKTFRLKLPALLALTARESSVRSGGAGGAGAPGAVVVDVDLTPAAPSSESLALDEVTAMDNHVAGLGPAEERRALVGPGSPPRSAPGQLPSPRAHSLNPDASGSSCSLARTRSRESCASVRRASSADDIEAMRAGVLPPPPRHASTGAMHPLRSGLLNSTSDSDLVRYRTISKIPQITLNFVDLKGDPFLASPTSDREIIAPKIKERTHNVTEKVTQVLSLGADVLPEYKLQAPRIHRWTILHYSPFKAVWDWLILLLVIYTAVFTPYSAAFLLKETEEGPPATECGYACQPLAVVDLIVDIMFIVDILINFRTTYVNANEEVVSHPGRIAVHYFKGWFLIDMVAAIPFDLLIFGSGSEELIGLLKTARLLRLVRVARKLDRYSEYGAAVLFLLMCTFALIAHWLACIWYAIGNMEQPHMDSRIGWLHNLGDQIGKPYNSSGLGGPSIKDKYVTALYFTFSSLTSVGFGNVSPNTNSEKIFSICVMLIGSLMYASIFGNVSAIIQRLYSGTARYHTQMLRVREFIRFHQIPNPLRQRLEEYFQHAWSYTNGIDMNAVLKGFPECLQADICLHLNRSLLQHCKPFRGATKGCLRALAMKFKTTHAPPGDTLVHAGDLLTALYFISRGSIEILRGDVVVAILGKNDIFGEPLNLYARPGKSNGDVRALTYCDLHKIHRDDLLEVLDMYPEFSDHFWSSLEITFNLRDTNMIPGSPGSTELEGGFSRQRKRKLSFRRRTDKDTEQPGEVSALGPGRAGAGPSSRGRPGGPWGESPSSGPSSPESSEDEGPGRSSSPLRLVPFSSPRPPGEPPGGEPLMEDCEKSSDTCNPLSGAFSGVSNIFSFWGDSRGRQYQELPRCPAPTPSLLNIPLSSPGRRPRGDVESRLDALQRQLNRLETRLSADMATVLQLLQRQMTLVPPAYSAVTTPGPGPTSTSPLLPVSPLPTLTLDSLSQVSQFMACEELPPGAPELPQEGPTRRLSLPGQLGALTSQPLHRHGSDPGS

The assay concerns the target human ether-à-go-go-related gene (hERG) potassium channel (human, UniProt Q12809). The assay can be described thus: primary screen, population patch clamp on CHO cells stably expressing hERG.
Take `CC(=O)NCc1cn2c(C)csc2n1`: the “hERG current change (%, negative = inhibition) at 10uM” value is recorded as -0.0891%.

`CCC(=Nc1ccc(OC)cc1OC)c1c(O)n(C)c(=O)n(C)c1=O`: the “hERG current change (%, negative = inhibition) at 10uM” value is on record as -11.8%.

Regarding `C/C(CC(=O)Nc1ccccn1)=N\NC(=O)c1ccccc1O`, the “hERG current change (%, negative = inhibition) at 10uM” value was 6.73%.

For `Cc1ccc(S(=O)(=O)N2CCC(C(=O)Nc3ccncc3)CC2)cc1`, the “hERG current change (%, negative = inhibition) at 10uM” value is reported as -37.9%.

As for `O=C(NCc1ccccc1)C(c1ccc(F)cc1)N(Cc1ccco1)C(=O)c1ccccn1` (stereo not drawn), the “hERG current change (%, negative = inhibition) at 10uM” value is recorded as -24.4%.

Turning to `O=C(CSc1nc2c(sc3ccccc32)c(=O)n1-c1ccccc1)NCc1ccco1`, the “hERG current change (%, negative = inhibition) at 10uM” value is given as -0.123%.

For `CC[n+]1c(/C=C(\C)SC)sc2ccccc21.COS(=O)(=O)[O-]`, the “hERG current change (%, negative = inhibition) at 10uM” value is reported as 3.25%.

As for `CCn1c(SCC(=O)Nc2cccc(C(C)=O)c2)nnc1C(C)C`, the “hERG current change (%, negative = inhibition) at 10uM” value came to 3.82%.

As for `N#CC(c1cccnc1)N1CCOCC1` (stereo not drawn), the “hERG current change (%, negative = inhibition) at 10uM” value is given as 14.5%.

For `O=C(CNc1cccc([N+](=O)[O-])c1)N/N=C/c1ccc(F)cc1`, the “hERG current change (%, negative = inhibition) at 10uM” value is listed as 5.79%.

With `CCn1cnc2sc(-c3ccccc3)cc2c1=O`, the “hERG current change (%, negative = inhibition) at 10uM” value is -0.663%.

Turning to `CC(=O)c1cccc(NC(=O)CO/N=C2/CCCc3nonc32)c1`, the “hERG current change (%, negative = inhibition) at 10uM” value is -0.684%.

As for `Cc1cc(C)c(C(=O)NCC2CCCO2)c(C)c1C(=O)NCC1CCCO1` (stereo not drawn), the “hERG current change (%, negative = inhibition) at 10uM” value was determined as 20%.

For `CC(C)(C)c1ccc(C(=O)NCc2nnc(SCC(=O)N3CCCc4ccccc43)n2-c2ccccc2)cc1`, the “hERG current change (%, negative = inhibition) at 10uM” value is -4.65%.

As to `Cn1nc(-c2ccc(C(=O)Nc3cccnc3)cc2)c2ccccc2c1=O`, the “hERG current change (%, negative = inhibition) at 10uM” value is reported as -9.84%.

As to `COC(=O)Cc1[nH]nc2c1C(c1ccc(O)c(OC)c1)C(C#N)=C(N)O2` (stereo not drawn), the “hERG current change (%, negative = inhibition) at 10uM” value came to 6.72%.

`CCC(=O)c1ccc(O)c(CC=C(C)C)c1`: the “hERG current change (%, negative = inhibition) at 10uM” value is -4.05%.

Consider `Cc1ccc(-n2c(SCC(=O)O)nc3c(sc(=S)n3-c3ccc(C)c(C)c3)c2=O)cc1`, for which the “hERG current change (%, negative = inhibition) at 10uM” value turned out to be 14%.

As to `Cc1cc(OCC(=O)NC(Cc2ccc(Cl)cc2)C(=O)O)c2c3c(c(=O)oc2c1)CCCC3` (stereo not drawn), the “hERG current change (%, negative = inhibition) at 10uM” value came out at 12.6%.

For `O=S(=O)(Nc1ccc(-c2ccc3nncn3n2)cc1)c1cccs1`, the “hERG current change (%, negative = inhibition) at 10uM” value is given as 15.4%.

In the case of `NC(=O)c1cc([N+](=O)[O-])ccc1NCc1cnccn1`, the “hERG current change (%, negative = inhibition) at 10uM” value is -12.9%.

On to `Cc1cc(C)cc(NC(=O)N2CCC(NC(=O)c3ccco3)CC2)c1`, for which the “hERG current change (%, negative = inhibition) at 10uM” value came to 4.34%.

Consider `CCCc1nc2ccc(Br)cc2c(=O)n1-c1ccc([N+](=O)[O-])c(C(F)(F)F)c1`, for which the “hERG current change (%, negative = inhibition) at 10uM” value is listed as -0.855%.

With `CC1=CC2=NC(=O)/C(=C\c3cccn3CCOc3cc(C)cc(C)c3)C(=N)N2O1`, the “hERG current change (%, negative = inhibition) at 10uM” value was -12.2%.

With `Cc1ccc2c(c1)C1CN(C)CCC1N2S(=O)(=O)c1cc(C(F)(F)F)ccc1Cl` (stereo not drawn), the “hERG current change (%, negative = inhibition) at 10uM” value is -27.6%.

Regarding `Cc1nc(CSc2nnc(N)s2)cs1`, the “hERG current change (%, negative = inhibition) at 10uM” value is 13.7%.

With `CC1CCCC(NC(=O)c2n[nH]c(=O)c3ccccc23)C1C` (stereo not drawn), the “hERG current change (%, negative = inhibition) at 10uM” value was 0.344%.

Regarding `O=C(CSc1nnc(-c2ccccn2)o1)Nc1ccccc1`, the “hERG current change (%, negative = inhibition) at 10uM” value is listed as -8.45%.

On to `O=S(=O)(Nc1cccc(-c2ccc3nncn3n2)c1)c1ccccc1F`, for which the “hERG current change (%, negative = inhibition) at 10uM” value is recorded as -2.04%.

As for `Cc1cccc(Nc2nnc(SCC(=O)NCc3cccs3)s2)c1C`, the “hERG current change (%, negative = inhibition) at 10uM” value was -26.2%.

For the compound `O=S(=O)(N/N=C/c1ccc(N2CCOCC2)cc1)c1ccccc1`, the “hERG current change (%, negative = inhibition) at 10uM” value was -14.8%.

As for `Cc1cccc(NC(=O)NC(C)CCc2ccccc2)c1` (stereo not drawn), the “hERG current change (%, negative = inhibition) at 10uM” value is listed as -12.5%.

Turning to `O=C(NCCc1ccccc1)C1CCCN(C(=O)Nc2ccc(F)cc2)C1` (stereo not drawn), the “hERG current change (%, negative = inhibition) at 10uM” value is -11.9%.

On to `CN=Cc1nc(-c2ccccc2)oc1O`, for which the “hERG current change (%, negative = inhibition) at 10uM” value was determined as 14.4%.

As to `CC1=CC(C)(C)Nc2ccc(C)cc21`, the “hERG current change (%, negative = inhibition) at 10uM” value is -58.1%.

For the compound `O=C(Nn1cc(C(=O)Nc2ccccc2F)c2ccccc2c1=O)c1cnccn1`, the “hERG current change (%, negative = inhibition) at 10uM” value is given as 1.52%.

As to `CCOc1ccccc1CN1CCN(Cc2ccc3cc(F)ccc3n2)CC1CCO` (stereo not drawn), the “hERG current change (%, negative = inhibition) at 10uM” value was -65.7%.

Regarding `CC1CCC(C(C)C)C(OC(=O)C2=C3c4ccccc4S(=O)(=O)N3CC2)C1` (stereo not drawn), the “hERG current change (%, negative = inhibition) at 10uM” value came to 12.3%.

As to `CCN(CC(=O)NCc1ccncc1)S(=O)(=O)c1ccccc1`, the “hERG current change (%, negative = inhibition) at 10uM” value was 5.51%.

On to `Cc1c(CCOC(=O)c2ccccc2)sc[n+]1Cc1ccccc1.[Cl-]`, for which the “hERG current change (%, negative = inhibition) at 10uM” value is -32.7%.

For `CC1(C)CC(=O)c2c(Cc3ccccc3)n[nH]c2C1`, the “hERG current change (%, negative = inhibition) at 10uM” value is -1.48%.

`COCCNC(=S)NCc1cccs1`: the “hERG current change (%, negative = inhibition) at 10uM” value was found to be 21%.

Take `O=c1[nH]c(Cc2cccs2)nc2ccccc12`: the “hERG current change (%, negative = inhibition) at 10uM” value stood at 3.61%.

As for `CCNC(=O)CSC1=N/C(=C\c2ccc(O)c(OCC)c2)C(=O)N1c1ccc(OC(F)F)cc1`, the “hERG current change (%, negative = inhibition) at 10uM” value is 6.33%.

With `CC(NC(=O)c1cn(C(C)c2ccccc2F)nn1)c1ccncc1` (stereo not drawn), the “hERG current change (%, negative = inhibition) at 10uM” value was 11.9%.
